Reference: paper PMC12820563
The list shows a part of the results. The list includes weakly bound sequences.

target: T1, MBP-FoxP3dN (UniProt Q99JB6); assay: PD-seq (MBP pull-down with sequencing); conditions: 20 mM Tris-HCl pH 7.5, 100 mM NaCl, 1.5 mM MgCl2, 0.4 uM protein, 0.1 uM dsDNA library, 30 min, room temperature, amylose pull-down; high values mean tight binding; double strand, one strand shown
T1 sequence: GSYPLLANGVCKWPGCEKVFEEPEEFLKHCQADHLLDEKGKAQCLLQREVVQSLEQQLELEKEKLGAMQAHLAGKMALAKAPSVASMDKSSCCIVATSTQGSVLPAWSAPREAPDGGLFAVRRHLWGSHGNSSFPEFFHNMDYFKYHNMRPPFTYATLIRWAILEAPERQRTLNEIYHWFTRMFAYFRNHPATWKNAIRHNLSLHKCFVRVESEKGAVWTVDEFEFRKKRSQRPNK

Question: Which binding signal (RPM ratio (pull-down/input)) does the source give for “GATGATTGTTCTCCCAGCTGATGAATTACGTCTGTCGAGTAAACAAATTTTCCTAATCTTTCTGTTCAAGCGCCATCTAC” here?
Answer: 0.636

Question: For “GATGATTGTTCTCCCAGCTGATGAATTCCCCTTGTCGAGTAAACAAATTTTCCTAATCTTTCTGTTCAAGCGCCATCTAC”, which binding signal (RPM ratio (pull-down/input)) is on record?
Answer: 0.259

Question: How did the binding signal (RPM ratio (pull-down/input)) turn out when “GATGATTGTTCTCCCAGCTGATGAATTAGTTCATTCGAGTAAACAAATTTTCCTAATCTTTCTGTTCAAGCGCCATCTAC” was run?
Answer: 0.471

Question: Which binding signal (RPM ratio (pull-down/input)) does the source give for “GATGATTGTTCTCCCAGCTGATGAATTTGGTAGGTCGAGTAAACAAATTTTCCTAATCTTTCTGTTCAAGCGCCATCTAC” here?
Answer: 0.705

Question: How did the binding signal (RPM ratio (pull-down/input)) turn out when “GATGATTGTTCTCCCAGCTGATGAATTATATGTATCGAGTAAACAAATTTTCCTAATCTTTCTGTTCAAGCGCCATCTAC” was run?
Answer: 2.22

Question: “GATGATTGTTCTCCCAGCTGATGAATTTTGCTACTCGAGTAAACAAATTTTCCTAATCTTTCTGTTCAAGCGCCATCTAC” was tested. Which binding signal (RPM ratio (pull-down/input)) did it give?
Answer: 2.59

Question: “GATGATTGTTCTCCCAGCTGATGAATTGCCCCACTCGAGTAAACAAATTTTCCTAATCTTTCTGTTCAAGCGCCATCTAC” was tested. Which binding signal (RPM ratio (pull-down/input)) did it give?
Answer: 0.519

Question: “GATGATTGTTCTCCCAGCTGATGAATTTGGTTCTTCGAGTAAACAAATTTTCCTAATCTTTCTGTTCAAGCGCCATCTAC” was tested. Which binding signal (RPM ratio (pull-down/input)) did it give?
Answer: 1.37

Question: With “GATGATTGTTCTCCCAGCTGATGAATTCACGGGTTCGAGTAAACAAATTTTCCTAATCTTTCTGTTCAAGCGCCATCTAC” as the sequence, how does the binding signal (RPM ratio (pull-down/input)) read?
Answer: 0.299

Question: With “GATGATTGTTCTCCCAGCTGATGAATTGGTTGCATCGAGTAAACAAATTTTCCTAATCTTTCTGTTCAAGCGCCATCTAC” as the sequence, how does the binding signal (RPM ratio (pull-down/input)) read?
Answer: 2.53

Question: With “GATGATTGTTCTCCCAGCTGATGAATTGGGGCATTCGAGTAAACAAATTTTCCTAATCTTTCTGTTCAAGCGCCATCTAC” as the sequence, how does the binding signal (RPM ratio (pull-down/input)) read?
Answer: 4.3

Question: For “GATGATTGTTCTCCCAGCTGATGAATTGCCACGTTCGAGTAAACAAATTTTCCTAATCTTTCTGTTCAAGCGCCATCTAC”, which binding signal (RPM ratio (pull-down/input)) is on record?
Answer: 0.841

Question: How did the binding signal (RPM ratio (pull-down/input)) turn out when “GATGATTGTTCTCCCAGCTGATGAATTACACTTTTCGAGTAAACAAATTTTCCTAATCTTTCTGTTCAAGCGCCATCTAC” was run?
Answer: 0.622

Question: Which binding signal (RPM ratio (pull-down/input)) does the source give for “GATGATTGTTCTCCCAGCTGATGAATTTTGGGTCTCGAGTAAACAAATTTTCCTAATCTTTCTGTTCAAGCGCCATCTAC” here?
Answer: 0.715

Question: How did the binding signal (RPM ratio (pull-down/input)) turn out when “GATGATTGTTCTCCCAGCTGATGAATTACCGGCGTCGAGTAAACAAATTTTCCTAATCTTTCTGTTCAAGCGCCATCTAC” was run?
Answer: 0.452

Question: How did the binding signal (RPM ratio (pull-down/input)) turn out when “GATGATTGTTCTCCCAGCTGATGAATTGGGCATGTCGAGTAAACAAATTTTCCTAATCTTTCTGTTCAAGCGCCATCTAC” was run?
Answer: 3.93

Question: Which binding signal (RPM ratio (pull-down/input)) does the source give for “GATGATTGTTCTCCCAGCTGATGAATTGTCGACTTCGAGTAAACAAATTTTCCTAATCTTTCTGTTCAAGCGCCATCTAC” here?
Answer: 0.569

Question: For “GATGATTGTTCTCCCAGCTGATGAATTACCTGAATCGAGTAAACAAATTTTCCTAATCTTTCTGTTCAAGCGCCATCTAC”, which binding signal (RPM ratio (pull-down/input)) is on record?
Answer: 0.246
